# About 50,000 (12%) of roughly 420,000 compounds were called active. This list was built around the results that the source calls inconclusive (neither active nor inactive); the mix of calls is not that of the screen. Calls follow the shape of the dose curve; as a rule, active = well fitted inhibition curve with a large enough effect; inconclusive = small, poorly fitted or top-dose-only effect; inactive = flat fitted curve, though single readings scatter. No potency is given beside an inconclusive call; the fits are too rough.
# Test: qHTS for Inhibitors of human tyrosyl-DNA phosphodiesterase 1 (TDP1): qHTS in cells in presence of CPT; also: nearly all actives have a fitted effect of over 55% in size
# Settings: chicken DT40 Tdp1-/-;hTDP1 cells + 20 nM CPT, ATP luminescence, 48 h; activity change, negative = growth inhibition: at 46.2 µM (top of the series) unless noted
# Method in brief: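 Chicken DT40 Tdp1-/- cells stably complemented with human TDP1 were seeded at 400 cells/well in medium containing 20 nM camptothecin, exposed to pin-transferred compounds, and grown at 37 °C for at least 48 hr. Viability was read as ATP luminescence.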
# % is scaled to controls: 0 for no effect and ±100 for the full control effect; potency is read from the fitted curve at half-maximal effect; tags tell the direction and shape of the fitted curve.
SMILES,Potency,"activity change, negative = growth inhibition"
CCOc1cc2c(cc1OCC)-n1cccc1C(c1ccccc1O)NC2 (stereo unspecified),active: 23.1 µM,
CCOC(=O)c1c(C)n(Cc2ccco2)c2c1cc(O)c1ccccc12,,inconclusive: -33.1% [inhibitor]
O=c1[nH]c(=S)n(C2CC2)c(O)c1/C=N/Nc1cccc2ccccc12,active: 16.4 µM,
O=C(c1cc(F)ccc1F)C1CCCN(Cc2cc(Cl)ccc2O)C1 (stereo unspecified),"inconclusive [inhibitor, single point]",
CC[N+](CC)(CC)CCCOC(=O)C(O)(c1ccccc1)C1CCCCC1 (stereo unspecified),"inconclusive [inhibitor, single point]",
CC1=C(C/C(C)=C/c2ccccc2)/C(=C/CO)[C@H](O)[C@](C)(O)C12CC2,"inconclusive [inhibitor, single point]",
CCCNS(=O)(=O)c1ccc(OCC(=O)N2CCN(Cc3ccc4c(c3)OCO4)CC2)cc1,"inconclusive [inhibitor, partial curve]",
CCn1c(=O)oc2cc(NC(=O)CCl)ccc21,active: 11.6 µM,
CC1/C=C/C=C/CC/C=C/C=C/C=C/C=C/C(OC2OC(C)C(O)C(N)C2O)CC2O[C@](O)(CC(O)C(O)CCC(O)CC(O)CC(O)CC(=O)OC(C)C(C)C1O)CC(O)C2C(=O)O (stereo partly specified),inactive,
CC[C@]12CCCN3CCC4(c5ccccc5NC4C(C(=O)O)C1)C32 (stereo partly specified),"inconclusive [inhibitor, full curve]",
COC(=O)C1=C(c2ccc(Cl)c(C(F)(F)F)c2)C[C@@H]2CC[C@H]1N2C(=O)NCCCOC(C)C,active: 25.9 µM,
CC(C)CN(C(=O)CN1CC=C(c2ccccc2)CC1)c1c(N)n(CC(C)C)c(=O)[nH]c1=O,"inconclusive [inhibitor, single point]",
Cc1cc(C)cc(NC(=S)NC2CC3CCCC(C2)N3Cc2cccs2)c1 (stereo unspecified),"inconclusive [inhibitor, single point]",
CN1C(=O)COc2c(C(=O)NC3CN4CCC3CC4)cc(Cl)cc21 (stereo unspecified),inactive,
O=C(Nc1ccc(F)c(Cl)c1)N(Cc1ccc2c(c1)OCO2)C1CCN(Cc2ccccc2)CC1,"inconclusive [inhibitor, single point]",
COc1ccc(C2/C=C\CN(C(=O)Oc3ccc(C(F)(F)F)cc3)CC(=O)N2Cc2ccc(F)cc2)cc1 (stereo unspecified),"inconclusive [inhibitor, single point]",
O=C(CN1C(=O)CN=C(c2ccccc2)c2ccccc21)NCc1ccco1,inactive,
CN(C[C@H](Cc1ccccc1)N(C[C@H](Cc1ccccc1)N(CCC(C)(C)C)N=O)N=O)N=O,active: 18.4 µM,
COC(=O)C1=C(C)NC(COC(N)=O)=C(C(=O)OC(C)C)C1c1cccc(Cl)c1Cl (stereo unspecified),active: 29.9 µM,
C/C(=C\[C@@H](N)C(=O)O)CP(=O)(O)O,inactive,
CC(=O)NC(Cc1ccc(N(CCCl)CCCl)cc1)C(=O)NCC(=O)NCC(=O)O (stereo unspecified),active: 6.51 µM,
O=[N+]([O-])c1ccc(C2[C@H]3C(c4ccccc4)=NC4(CCCCC4)N23)cc1 (stereo partly specified),"inconclusive [inhibitor, partial curve, poor fit]",

SMILES,Potency,"activity change, negative = growth inhibition"
CC(=O)O[C@H]1C[C@H](O[C@H]2[C@@H](O)C[C@H](O[C@H]3[C@@H](O)C[C@H](OC4CC[C@@]5(C)[C@H](CC[C@@H]6[C@@H]5CC[C@]5(C)[C@@H](C7=CC(=O)OC7)CC[C@]65O)C4)O[C@@H]3C)O[C@@H]2C)O[C@H](C)[C@H]1O[C@@H]1O[C@H](CO)[C@@H](O)[C@H](O)[C@H]1O (stereo partly specified),active: 0.335 µM,
CCOC(=O)C(C#N)=C(c1ccccc1)c1ccccc1,"inconclusive [inhibitor, single point]",
O=P(Nc1ccccc1)(Oc1ccccc1)Oc1ccccc1,"inconclusive [inhibitor, single point]",
N#Cc1cc(NC(=O)c2ccc(Cl)cc2)ccc1Sc1ccccc1,active: 20.6 µM,
COc1cc(/C=C2/C(=O)NC(=O)N(c3ccc(C)cc3)C2=O)cc(OC)c1OC,inactive,
COCCNC(=O)c1c(N)n(Cc2ccco2)c2nc3ccccc3nc12,"inconclusive [inhibitor, single point]",
CN(C[C@H](Cc1ccccc1)N(C[C@H](c1ccccc1)N(CCc1ccccc1)N=O)N=O)N=O,"inconclusive [inhibitor, single point]",
CC(C)C[C@H]1C(=O)N2CCC[C@H]2[C@]2(O)O[C@](NC(=O)[C@@H]3C[C@@H]4c5cccc6[nH]cc(c56)C[C@H]4N(C)C3)(C(C)C)C(=O)N12,"inconclusive [inhibitor, single point]",
O=c1[nH]c2ccccc2n1C1CCN(C(c2nnnn2-c2ccc3c(c2)OCCO3)C2CC2)CC1 (stereo unspecified),active: 13 µM,
C[C@]12CC[C@H](N)CC1=CCC1C2CC[C@@]2(C)C1CC[C@@H]2O (stereo partly specified),active: 18.4 µM,
COCCCNC(=O)c1c(N)n(Cc2ccco2)c2nc3ccccc3nc12,"inconclusive [inhibitor, single point]",
O=C1NC(=O)C(Sc2ccccc2[N+](=O)[O-])C(=O)N1,"inconclusive [inhibitor, single point]",
O=c1c2ccccc2sn1-c1ccc(Cl)cc1,active: 2.06 µM,
CCOC(=O)[C@]12Cc3cc(C)ccc3[C@H]1N(CCC(=O)OC)C(=O)c1ccccc12,active: 23.1 µM,
COC(=O)c1c(N)[nH]c(C(=O)c2ccccc2)c1-c1ccc(Cl)cc1,"inconclusive [inhibitor, single point]",
C[n+]1c(-c2ccccc2)cc(-c2ccc(Cl)cc2)cc1-c1ccccc1,active: 3.66 µM,
O=C(Nc1ccon1)c1cccn(Cc2cccc([N+](=O)[O-])c2)c1=O,"inconclusive [inhibitor, partial curve]",
Cc1c(C(=O)Nc2ccccc2)c2cc(O)ccc2n1Cc1ccccc1,"inconclusive [inhibitor, partial curve]",
CC1CCN(C(=O)c2ccc(N3CC4CC(C3)c3cccc(=O)n3C4)c([N+](=O)[O-])c2)CC1 (stereo unspecified),inactive,
CC(=O)Nc1cccc(-c2csc(C(O)c3cccc(Cl)c3)n2)c1 (stereo unspecified),active: 23.1 µM,
C[C@]12CCC(=O)C=C1CCc1ccc(O)cc12,inactive,
Cc1cccc(C)c1NC1=NCCCS1,"inconclusive [inhibitor, single point]",

SMILES,Potency,"activity change, negative = growth inhibition"
O=C(Nc1ccccc1)N(Cc1ccc2c(c1)OCO2)C1CCN(Cc2ccccc2)CC1,"inconclusive [inhibitor, single point]",
c1ccc(-c2nc(C3CCCCC3)c3sccc3n2)cc1,"inconclusive [inhibitor, single point]",
C=C1C(C)C2C(Cc3ccccc3)NC(=O)C23OC(=O)/C=C/C(O)CCCC(C)C/C=C/C3C1O (stereo unspecified),active: 1.46 µM,
COC(=O)C1=C(c2cccc(OC)c2OC)C[C@@H]2CC[C@H]1N2C(=O)N1CCCC1,active: 20.6 µM,
COC(=O)Cn1cc(/C=C2\C(=O)NC(=O)N(c3ccccc3)C2=O)c2ccccc21,"inconclusive [inhibitor, partial curve, poor fit]",
CCCCC(=O)N/N=C/c1c(O)n(CCc2ccccc2)c(=O)[nH]c1=O,"inconclusive [inhibitor, single point]",
CCCOC(C(=O)OC1CCN(C)CC1)(c1ccccc1)c1ccccc1,active: 21.1 µM,
Cc1ccc(-c2cc(-c3ccc(C)cc3)[n+](-c3ccc(C(=O)[O-])cc3)c(-c3ccc(C)cc3)c2)cc1,"inconclusive [inhibitor, single point]",
c1ccc2c(NC3=NCCS3)cccc2c1,inactive,
Cc1cc(C)n(-c2nc3nonc3nc2Nc2cccc(C)c2C)n1,"inconclusive [inhibitor, single point]",
Fc1ccc2c(c1)nnn2C1CCN(Cc2c(Cl)cccc2Cl)CC1,active: 18.4 µM,
CCCCC/C=C\C/C=C\C/C=C\C/C=C\CCCC(=O)Nc1ccc(O)cc1,active: 26.6 µM,
COC(=O)C1=C(c2ccc(OC(F)(F)F)cc2)C[C@@H]2CC[C@H]1N2C(=O)NCCCOC(C)C,"inconclusive [inhibitor, single point]",
COc1cccc(NP(=O)(Oc2ccc(Cl)cc2)Oc2ccc(Cl)cc2)c1,"inconclusive [inhibitor, single point]",
O=C(NCCO)c1nsnc1NCCCl,inactive,
O=C(/C=C/c1ccc2c(c1)OCO2)c1c(O)n(CCC2=CCCCC2)c(=O)[nH]c1=O,"inconclusive [inhibitor, single point]",
CN(C(=O)CCN1C(=O)/C(=C/c2ccc(F)cc2)SC1=S)C1CCS(=O)(=O)C1 (stereo unspecified),active: 20.6 µM,
COc1ccc(C2=NCC(=S)Nc3ccc(Cl)cc32)cc1OC,inactive,
NNC(=O)CP(=O)(c1ccccc1)c1ccccc1,"inconclusive [inhibitor, partial curve, poor fit]",
Cc1ccc(CNC(=O)c2ccc(Nc3nc4ccccc4n4nnnc34)cc2)cc1,"inconclusive [inhibitor, single point]",
CN(C(=O)c1ccc(Cl)nc1)C1(c2ccccc2Cl)CCCCC1=O (stereo unspecified),inactive,
CC(C)CCn1c(=O)c(C(=O)NCc2ccco2)c(O)c2ccccc21,"inconclusive [inhibitor, partial curve, poor fit]",
